Reference: publication PMC12548428
These are yes or no findings as the source states them, for the method shown. For part of these data: Binding seen in cells or lysates may run through a third protein. Some results given as binding are weak or reduced against the parent protein; the word gives no strength. Sequences can lack the tags named with a protein. One block for each binder: values may come before it.

Columns and labels:
[1] = molecular target: T1, IKKα, Gal4 DNA-BD fusion (UniProt O15111); experiment: two-hybrid; Matchmaker system (Clontech), Y2H Gold strain; IKKα or IKKβ as Gal4 DNA-BD bait (pGBKT7), CSAD as Gal4 AD prey (pGADT7); selection on SD/-Ade/-His/-Leu/-Trp/+AbA/+X-α-Gal (QDO/A/X), blue colonies
T1 sequence: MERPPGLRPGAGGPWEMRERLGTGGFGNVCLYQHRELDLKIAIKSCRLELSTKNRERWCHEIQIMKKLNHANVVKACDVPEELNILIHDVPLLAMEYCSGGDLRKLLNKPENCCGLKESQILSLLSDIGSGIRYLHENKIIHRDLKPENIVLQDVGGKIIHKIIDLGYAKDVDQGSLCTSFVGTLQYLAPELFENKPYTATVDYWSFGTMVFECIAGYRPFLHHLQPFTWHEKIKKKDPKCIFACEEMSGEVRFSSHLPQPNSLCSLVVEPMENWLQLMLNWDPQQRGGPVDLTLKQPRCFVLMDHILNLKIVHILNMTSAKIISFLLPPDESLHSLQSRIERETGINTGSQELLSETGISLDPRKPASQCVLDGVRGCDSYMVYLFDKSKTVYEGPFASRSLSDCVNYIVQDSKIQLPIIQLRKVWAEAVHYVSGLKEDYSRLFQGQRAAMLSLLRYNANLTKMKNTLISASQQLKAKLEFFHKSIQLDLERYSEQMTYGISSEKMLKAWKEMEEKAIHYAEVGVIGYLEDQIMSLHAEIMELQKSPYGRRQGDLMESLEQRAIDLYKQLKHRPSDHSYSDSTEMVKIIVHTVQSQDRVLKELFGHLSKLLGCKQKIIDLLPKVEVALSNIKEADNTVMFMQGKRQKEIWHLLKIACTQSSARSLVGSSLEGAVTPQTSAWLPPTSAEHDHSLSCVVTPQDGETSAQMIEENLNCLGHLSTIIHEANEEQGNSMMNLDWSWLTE

[2] = molecular target: T2, IKKβ, Gal4 DNA-BD fusion (UniProt O14920); experiment: as above
T2 sequence: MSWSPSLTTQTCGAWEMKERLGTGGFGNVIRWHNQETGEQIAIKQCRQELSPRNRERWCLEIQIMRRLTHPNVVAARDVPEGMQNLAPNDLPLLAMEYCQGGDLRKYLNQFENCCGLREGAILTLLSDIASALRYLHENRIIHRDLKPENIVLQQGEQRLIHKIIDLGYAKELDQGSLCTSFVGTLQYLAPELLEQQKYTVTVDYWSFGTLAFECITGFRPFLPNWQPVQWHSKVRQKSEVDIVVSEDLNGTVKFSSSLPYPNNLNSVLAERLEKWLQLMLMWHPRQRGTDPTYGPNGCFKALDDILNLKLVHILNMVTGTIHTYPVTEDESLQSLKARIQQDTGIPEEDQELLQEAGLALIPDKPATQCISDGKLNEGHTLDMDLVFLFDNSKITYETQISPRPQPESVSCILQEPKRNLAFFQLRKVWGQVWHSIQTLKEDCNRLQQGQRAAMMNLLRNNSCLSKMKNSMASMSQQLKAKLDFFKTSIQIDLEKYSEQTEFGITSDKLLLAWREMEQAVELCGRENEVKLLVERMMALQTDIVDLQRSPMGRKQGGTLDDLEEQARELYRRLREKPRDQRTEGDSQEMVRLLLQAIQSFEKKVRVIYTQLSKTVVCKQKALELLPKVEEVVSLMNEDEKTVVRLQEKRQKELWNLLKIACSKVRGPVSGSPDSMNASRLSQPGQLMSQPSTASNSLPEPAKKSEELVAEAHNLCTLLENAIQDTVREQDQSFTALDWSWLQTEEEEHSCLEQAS

[3] = molecular target: T3, cysteine sulfinic acid decarboxylase (CSAD), Flag-tagged (human) (UniProt Q9Y600); experiment: co-IP; 293T cells cotransfected with Flag-tagged CSAD (full length, T1 or T2) and HA-tagged IKKα (full length, T1, T2) or IKKβ; lysed 36 h after transfection; supernatant with anti-flag M2 affinity beads 3 h, four washes with lysis buffer; Western blot
T3 sequence: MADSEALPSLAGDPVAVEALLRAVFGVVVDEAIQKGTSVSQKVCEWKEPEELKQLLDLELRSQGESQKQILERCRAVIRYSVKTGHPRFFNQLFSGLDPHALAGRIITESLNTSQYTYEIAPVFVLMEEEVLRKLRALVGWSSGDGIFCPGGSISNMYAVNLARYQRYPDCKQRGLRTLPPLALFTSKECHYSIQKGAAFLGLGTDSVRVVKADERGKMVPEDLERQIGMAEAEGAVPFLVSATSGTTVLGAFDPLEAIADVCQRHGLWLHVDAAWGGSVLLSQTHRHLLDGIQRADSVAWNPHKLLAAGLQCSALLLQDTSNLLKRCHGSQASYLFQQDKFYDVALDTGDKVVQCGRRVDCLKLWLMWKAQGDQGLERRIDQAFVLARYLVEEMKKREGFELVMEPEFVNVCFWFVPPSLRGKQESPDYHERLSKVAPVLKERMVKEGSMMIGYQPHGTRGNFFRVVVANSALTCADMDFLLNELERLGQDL

[4] = molecular target: T3, cysteine sulfinic acid decarboxylase (CSAD), Flag-tagged (human); experiment: co-IP; 293T cells transfected with CSAD-Flag only; lysate with anti-flag affinity gel; endogenous IKKα and IKKβ detected by Western blot

binding [1]: binds | binding [2]: no binding
B1: CSAD, Gal4 AD fusion (enzyme, UniProt Q9Y600 1-493)
chain: T3 sequence

binding [3]: no binding
B2: IKKβ, HA-tagged (enzyme, UniProt O14920 1-756)
chain: T2 sequence

binding [4]: no binding
B3: endogenous IKKβ (enzyme, UniProt O14920 1-756)
chain: T2 sequence

binding [3]: no binding
B4: IKKα-T2 (372–745 aa), HA-tagged (domain or fragment, UniProt O15111 372-745)
chain: VLDGVRGCDSYMVYLFDKSKTVYEGPFASRSLSDCVNYIVQDSKIQLPIIQLRKVWAEAVHYVSGLKEDYSRLFQGQRAAMLSLLRYNANLTKMKNTLISASQQLKAKLEFFHKSIQLDLERYSEQMTYGISSEKMLKAWKEMEEKAIHYAEVGVIGYLEDQIMSLHAEIMELQKSPYGRRQGDLMESLEQRAIDLYKQLKHRPSDHSYSDSTEMVKIIVHTVQSQDRVLKELFGHLSKLLGCKQKIIDLLPKVEVALSNIKEADNTVMFMQGKRQKEIWHLLKIACTQSSARSLVGSSLEGAVTPQTSAWLPPTSAEHDHSLSCVVTPQDGETSAQMIEENLNCLGHLSTIIHEANEEQGNSMMNLDWSWLTE

binding [3]: binds
B5: IKKα-T1 (1–371 aa), HA-tagged (domain or fragment, UniProt O15111 1-371)
chain: MERPPGLRPGAGGPWEMRERLGTGGFGNVCLYQHRELDLKIAIKSCRLELSTKNRERWCHEIQIMKKLNHANVVKACDVPEELNILIHDVPLLAMEYCSGGDLRKLLNKPENCCGLKESQILSLLSDIGSGIRYLHENKIIHRDLKPENIVLQDVGGKIIHKIIDLGYAKDVDQGSLCTSFVGTLQYLAPELFENKPYTATVDYWSFGTMVFECIAGYRPFLHHLQPFTWHEKIKKKDPKCIFACEEMSGEVRFSSHLPQPNSLCSLVVEPMENWLQLMLNWDPQQRGGPVDLTLKQPRCFVLMDHILNLKIVHILNMTSAKIISFLLPPDESLHSLQSRIERETGINTGSQELLSETGISLDPRKPASQC
